Results taken from PubChem BioAssay (Tox21).
Where “and” joins values, the source holds several entries; their conditions need not be identical. Equal values may be shown once. The shares of active, inactive and inconclusive entries below differ from those in the screen. Where the call is inconclusive, the potency comes from a doubtful curve fit. Calls of active or inactive are those of the source. Unless noted, calls come from the whole dose curve; as a rule, active = well fitted curve in the direction sought with a large enough effect in the repeat runs; inconclusive = weak or mixed curves; inactive = no such curve, though single readings can be large; an effect the other way counts as inactive or inconclusive.
Potency is the fitted concentration of half-maximal effect; tags give direction and shape of the fitted curve or compound fluorescence and quenching.

Target: Aryl hydrocarbon receptor (Homo sapiens) (UniProt P35869)
Sequence of UniProt P35869 (P35869 whole entry, looked up): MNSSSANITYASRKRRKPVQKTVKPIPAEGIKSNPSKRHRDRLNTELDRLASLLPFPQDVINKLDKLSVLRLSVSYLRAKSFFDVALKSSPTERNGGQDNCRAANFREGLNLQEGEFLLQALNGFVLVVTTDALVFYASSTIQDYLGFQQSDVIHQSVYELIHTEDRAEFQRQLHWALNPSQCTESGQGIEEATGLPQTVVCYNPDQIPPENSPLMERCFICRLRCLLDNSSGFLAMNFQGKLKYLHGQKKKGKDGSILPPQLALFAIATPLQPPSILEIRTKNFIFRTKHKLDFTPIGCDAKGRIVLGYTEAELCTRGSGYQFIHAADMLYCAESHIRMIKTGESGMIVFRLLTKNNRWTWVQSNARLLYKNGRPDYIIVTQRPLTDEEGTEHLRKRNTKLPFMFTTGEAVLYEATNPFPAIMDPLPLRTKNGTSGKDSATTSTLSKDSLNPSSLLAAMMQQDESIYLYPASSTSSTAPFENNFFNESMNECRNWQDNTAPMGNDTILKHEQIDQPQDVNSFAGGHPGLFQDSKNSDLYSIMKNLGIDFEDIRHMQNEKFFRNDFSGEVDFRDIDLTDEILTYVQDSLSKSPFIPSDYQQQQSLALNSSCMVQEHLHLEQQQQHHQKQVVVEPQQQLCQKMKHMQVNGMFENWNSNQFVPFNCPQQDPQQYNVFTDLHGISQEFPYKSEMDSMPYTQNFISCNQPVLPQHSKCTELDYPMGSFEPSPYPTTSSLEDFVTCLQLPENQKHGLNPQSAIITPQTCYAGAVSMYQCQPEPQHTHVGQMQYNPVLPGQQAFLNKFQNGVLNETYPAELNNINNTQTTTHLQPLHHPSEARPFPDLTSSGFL
Assay: qHTS assay to identify small molecule that activate the aryl hydrocarbon receptor (AhR) signaling pathway (AID 743085); note: nearly all actives have a fitted effect of over 15% in size
Conditions: HepG2 AhR-luc (HG2L7.5c1), luciferase, 24 h; series mostly up to 70.3 µM; activation: at the top concentration
Summary of the method: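 Steps: seed HepG2-AhR-luc cells; allow 5 h at 37C; pin-transfer test compound or vehicle; incubate 24 h at 37C; add viability dye (30 min, 37C) and read fluorescence; add luciferase substrate (30 min, RT) and read luminescence.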
With `OCCCBr` the Potency was inconclusive: 27.3 µM [activator, partial curve, poor fit]. With `Clc1ccc(CO/N=C(\Cn2ccnc2)c2ccc(Cl)cc2Cl)c(Cl)c1` the Potency was inconclusive: 26.6 µM [activator, partial curve]. With `O=c1[nH]c2ccccc2n1CCCN1CCC(n2c(=O)[nH]c3cc(Cl)ccc32)CC1` the Potency was inconclusive: 18.8 µM [activator, partial curve, poor fit].

Test system: not listed separately
Assay: qHTS assay to identify small molecule that activate the aryl hydrocarbon receptor (AhR) signaling pathway - cell viability counter screen (AID 743086); note: nearly all actives have a fitted effect of over 45% in size;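 for viability change, negative = cytotoxic: HepG2 liver cells carrying the AhR DRE luciferase reporter; % is set by controls: 0 for no effect and ±100 for the full control effect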
Conditions: HepG2-AhR-luc viability, CellTiter-Fluor, 24 h; series mostly up to 70.3 µM; viability change, negative = cytotoxic: at the top concentration
Summary of the method: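 HepG2-AhR-luc (HG2L7.5c1) cells, 4000/well, were preincubated 5 h at 37C, exposed to compound in qHTS format for 24 hr at 37C, then given CellTiter-Fluor for 30 min; viability was read as fluorescence in the reporter wells.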
With `CC(Cc1ccccc1)NCCn1cnc2c1c(=O)n(C)c(=O)n2C` (stereo not drawn) the Potency was inconclusive: 24 µM [falling, full curve]. In the case of `CC(C)C#N`, the Potency was “inactive”. For `CCN(CCO)CCO`, the Potency was inconclusive: 61.1 µM [rising, partial curve, poor fit]. For `O=c1[nH]c2ccccc2n1CCCN1CCC(n2c(=O)[nH]c3cc(Cl)ccc32)CC1`, the Potency was inconclusive: 33.5 µM [falling, single point].

Target: Peroxisome proliferator-activated receptor gamma (Homo sapiens) (UniProt P37231)
Sequence of UniProt P37231 (P37231 whole entry, looked up): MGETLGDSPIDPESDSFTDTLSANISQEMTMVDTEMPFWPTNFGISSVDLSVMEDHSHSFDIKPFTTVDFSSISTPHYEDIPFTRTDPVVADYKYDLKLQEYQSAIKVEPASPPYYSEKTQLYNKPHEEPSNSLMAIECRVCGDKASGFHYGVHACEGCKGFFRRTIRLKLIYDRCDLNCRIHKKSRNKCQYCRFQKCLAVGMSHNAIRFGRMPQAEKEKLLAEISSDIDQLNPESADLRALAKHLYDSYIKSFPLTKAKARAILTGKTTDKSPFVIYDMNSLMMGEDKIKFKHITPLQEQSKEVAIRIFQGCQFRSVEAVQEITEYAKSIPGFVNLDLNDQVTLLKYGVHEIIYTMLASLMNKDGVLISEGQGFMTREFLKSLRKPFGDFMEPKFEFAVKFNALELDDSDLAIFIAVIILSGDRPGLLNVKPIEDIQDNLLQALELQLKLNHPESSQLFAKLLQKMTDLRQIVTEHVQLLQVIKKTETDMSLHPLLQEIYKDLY
Assay: qHTS assay to identify small molecule agonists of the peroxisome proliferator-activated receptor gamma (PPARg) signaling pathway (AID 743094; active = well fitted activation curve with a large enough effect in the signal ratio in the repeat runs, not every such curve was filed as active; inconclusive = weak or mixed curves, or effect the other way; inactive = no such curve, though single readings can be large or run the other way; the % refers to the signal ratio; for activation: % is set by controls: 0 for no effect and ±100 for the full control effect)
Conditions: HEK293H PPARg-UAS-bla, beta-lactamase FRET ratio, 17 h; activation: at 57 µM (top of the series) unless noted
Summary of the method: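 Reporter activation was scored by fluorescence of cleaved LiveBLAzer B/G substrate (1 h, room temperature) in PPARg-bla HEK293H cells previously treated 17 h at 37C with DMSO-dissolved compounds.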
With `COc1ccc(N)cc1N` the Potency was inconclusive: 50.5 µM [fluorescent, partial curve] and inconclusive: 29.7 µM [fluorescent, partial curve, poor fit]. With `ClC(Cl)(Cl)C(Cl)(Cl)Cl` the “activation” value was inactive: 4.69% [at 78.9 µM]. In the case of `CCCN(CCC)c1c([N+](=O)[O-])cc(S(C)(=O)=O)cc1[N+](=O)[O-]`, the “activation” value was inactive: 2.21%. In the case of `COC(=O)C(Br)CBr` (stereo not drawn), the activation was inconclusive: 13.5%. In the case of `O=C(NC(=O)c1c(F)cccc1F)Nc1ccc(Cl)cc1`, the activation was inconclusive: 7.59%. For `CN(C)c1ccc(N(C)C)cc1`, the “activation” value was inactive: 8.45%. For `NNc1ccccc1`, the activation was inconclusive: -12.2% [middle of 4 runs]. In the case of `Clc1ccc(CO/N=C(\Cn2ccnc2)c2ccc(Cl)cc2Cl)c(Cl)c1`, the “activation” value was inactive: 9.15%. For `Fc1cccc(Cl)c1CCl`, the “activation” value was inactive: 4.24%. For `CC[n+]1ccccc1`, the Potency was inconclusive: 21.7 µM [inhibitor, full curve]. In the case of `CCOCN(C(=O)CCl)c1c(C)cccc1CC`, the activation was inconclusive: -18.8%.
